In all, about 320,000 compounds went through this assay and about 9,100 (2.8%) were called active. This list was built around the results that the source calls inconclusive (neither active nor inactive); the mix of calls is not that of the screen. Calls come from the whole dose curve; as a rule, active = well fitted activation curve with a large enough effect; inconclusive = small, poorly fitted or top-dose-only effect; inactive = no such curve, though single readings can be large or run the other way. Potencies of inconclusive entries are left out as doubtful fits.
assay: qHTS Assay for Rab9 Promoter Activators; conditions: Huh7 Rab9 promoter-luciferase reporter, luminescence, 24 h; series mostly up to 9.22 µM; activation, negative = inhibition: at the top concentration; note: nearly all actives have a fitted effect of over 60% in size; for activation, negative = inhibition: % of control where 0% means no effect
In short: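 Cells were plated at 1500 per well in reduced-serum medium with 10% FBS and left 2 h. Compound in DMSO was then added for 24 h at 37 °C. Reporter signal was read by luminescence after 10 min with luciferase detection reagent.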
Potency is the fitted concentration of half-maximal effect; tags give direction and shape of the fitted curve.

SMILES	Potency	activation, negative = inhibition
CCOc1ncccc1C(=O)Nc1ccc2nc(C)sc2c1	inconclusive [activator, single point]	
Cc1ccccc1CSc1nnc(C)n1N		inactive: 7.5%
CC(CNC(=O)CN1C(=O)C(=O)N(C2CCCC2)C1=O)c1ccccc1 (stereo unspecified)		inactive: -2.6%
Cc1ccc2sc(NNC(=O)c3ccc4c(c3)OCCO4)nc2c1C		inactive: -6.32%
Cc1nn(-c2ccc(Cl)c(Cl)c2)c(=O)c2ccccc12		inactive: 18.6%
CCC(=O)Nc1ccc2c(c1)ncn2-c1ccccc1OC		inactive: -1.51%
O=[N+]([O-])c1ccc2c(c1)C=C1CCCCC1(N1CCCC1)O2 (stereo unspecified)		inactive: 14.5%
Cc1ccc2nc(-c3ccc(NC(=O)CN4CCN(c5ccccn5)CC4)cc3)sc2c1	inconclusive [activator, partial curve]	
CSc1ccccc1OCc1cc(C(=O)N(C)Cc2ccc(C)o2)no1	active: 3.98 µM	
Cc1ccc(-c2nc3ccccc3[nH]2)cn1	inconclusive [activator, partial curve]	
COCCn1c(=NC(=O)c2ccccc2[N+](=O)[O-])sc2cc(S(C)(=O)=O)ccc21	inconclusive [activator, single point]	
N#Cc1ccccc1NC(=O)COc1ccc2c(c1)OCO2	active: 3.55 µM	
COc1ccc(NC(=S)Nc2ncccc2C)cc1OC	inconclusive [activator, single point]	
CCOC(=O)c1nnc(-c2ccc(C)cc2)nc1N1CCSCC1		inactive: 10.4%
CCOC(=O)c1cc(=O)n2c(nc3ccccc32)[nH]1	inconclusive [activator, single point]	
Cc1ccccc1Nc1nc(N)nc(CSc2ccccc2)n1	active: 1.41 µM	
Cn1ccc(C(=O)Oc2ccc(C(=O)Nc3ccc(F)cc3F)cc2)n1	inconclusive [activator, partial curve]	
Cc1ccc2nc(N3CCN(C(=O)c4ccco4)CC3)sc2c1	inconclusive [activator, single point]	
Cc1c([N+](=O)[O-])c(C(=O)Nc2ccc3c(c2)OCCO3)nn1C	inconclusive [activator, single point]	
COCCN1CCn2c(nc3cc(NC(=O)c4cccs4)ccc32)C1	inconclusive [activator, partial curve]	
Cc1sc(NC(=O)c2ccccc2F)c(CN2CCCCC2C)c1C (stereo unspecified)	inconclusive [activator, single point]	
Nc1ccc(NC(=S)Nc2ccccc2)cc1	inconclusive [activator, single point]	
Cn1nc(-c2ccc(Cl)cc2)nc2c(=O)n(C)c(=O)nc1-2	inconclusive [activator, partial curve]	
C/C(=N/Nc1ccc([N+](=O)[O-])cc1)c1c[nH]c2ccccc12	inconclusive [activator, partial curve]	
C(=C\c1nnc2c3ccccc3ncn12)/c1ccccc1	active: 3.16 µM	
COc1ccc(Nc2cnn(-c3nc4ccccc4s3)c(=O)c2Cl)cc1	inconclusive [activator, partial curve]	

SMILES	Potency	activation, negative = inhibition
O=C(Nc1ccc2oc(-c3ccccc3)nc2c1)c1cccnc1	inconclusive [activator, partial curve]	
Cn1nc(C(=O)NCc2ccc(F)cc2)c2ccccc2c1=O		inactive: -6.39%
C/C(=N\Nc1ccc(C(=O)O)cc1)c1ccc(S(=O)(=O)NCc2ccco2)cc1	inconclusive [activator, single point]	
Cc1cc(Cl)c2oc(C(=O)NCCC3CCCCO3)c(C)c2c1 (stereo unspecified)	inconclusive [activator, partial curve]	
COc1cccc2sc(=NC(=O)CS(=O)(=O)c3ccc(Cl)cc3)n(C)c12		inactive: -15.9%
c1ccc(-c2cc(N3CCCCCC3)n[nH]2)cc1	inconclusive [activator, single point]	
COc1ccc(OC)c2[nH]c(=O)c(CCNC(=O)Cc3cccs3)cc12		inactive: -7.42%
CS(=O)(=O)N1CCN(C(=O)c2cc(-c3ccccc3)nc3ccccc23)CC1		inactive: -1.12%
Cc1nc(-c2ccccn2)nc(N(C)c2ccccc2)c1Cl		inactive: -2.01%
Cn1nccc1C(=O)OCC(=O)Nc1cccc(Cl)c1		inactive: -0.667%
COc1ccc(C(=O)c2ccc(OC)cc2O)c(O)c1	inconclusive [activator, partial curve]	
CC(=O)Nc1cccc(NC(=O)C(=O)c2cn(CC(=O)N3CCCCC3)c3ccccc23)c1	inconclusive [activator, single point]	
CCN(CC(=O)Nc1c(F)cccc1F)C(=O)CNC(=O)c1ccc(C)s1	inconclusive [activator, full curve]	
Cc1ccc(Nc2cc(C)c3c(O)cccc3n2)cc1C	inconclusive [activator, single point]	
Cc1cnc(NC(=O)CC2CCCC2)s1	inconclusive [activator, partial curve]	
Cc1ccc(C(=O)Nc2cccc3cccnc23)cc1C	inconclusive [activator, partial curve]	
COCCN(C(=O)c1ccc(N2C(=O)c3ccccc3C2=O)cc1)c1c(N)n(CC(C)C)c(=O)[nH]c1=O		inactive: -0.566%
Cc1ccc(NC(=O)Nc2cnccn2)cc1	inconclusive [activator, partial curve]	
Cc1cccnc1NC(=S)NCCc1ccccc1	inconclusive [activator, partial curve]	
CCCNC(=S)NC1CC2CCCC(C1)N2Cc1ccc(F)cc1 (stereo unspecified)		inactive: -0.102%
O=C(c1cc(-c2ccc(Cl)cc2)on1)N1CCN(c2ccccc2)CC1	inconclusive [activator, single point]	
Brc1ccc(-c2nnc(-c3ccc4c(c3)OCO4)o2)o1	active: 1 µM	
COc1ccc(/C(C#N)=C/c2cccnc2)cc1	inconclusive [activator, partial curve]	
Cc1ccc(CSCCNC(=O)/C=C/c2ccccc2Cl)cc1		inactive: 2.59%
CCC1CCCCN1C(=O)CSc1nc2c([nH]c3ccccc32)c(=O)n1C (stereo unspecified)		inactive: -1.92%
CC(C)(C)OC(=O)N1CCC(C(=O)Nc2ccc3c(c2)CCC3)CC1	inconclusive [activator, single point]	

SMILES	Potency	activation, negative = inhibition
Cc1ccc(CC2C(=O)N(c3ccc(C)cc3)C(=O)C2C)cc1 (stereo unspecified)	inconclusive [activator, single point]	
O=C(Nc1sc2c(c1C(=O)O)CCCC2)c1cccc(Cl)c1	inconclusive [activator, single point]	
O=C(NNC(=S)NC1CCCCC1)c1ccccc1Cl	inconclusive [activator, single point]	
Cc1c(Cl)cccc1NC(=O)CSc1ncnc2c1cnn2CCO		inactive: 1.56%
CCOc1ccc(Nc2oc(-c3ccco3)nc2C#N)cc1	inconclusive [activator, partial curve]	
CCOC(=O)c1cccc(NC(=O)c2ccco2)c1	inconclusive [activator, partial curve]	
COc1ccc(-c2nc(C#N)c(NC(C)C)o2)cc1	inconclusive [activator, single point]	
CCCCc1nc2cc(C(=O)N3CCNC(=O)C3)ccc2o1		inactive: 1.87%
CCc1cc2c(=O)c(-c3ccc4c(c3)OCCO4)coc2cc1OC(=O)c1ccco1	active: 2 µM	
COc1cc(/C(C)=N/Nc2ccc(C(=O)O)cc2)cc(OC)c1OC	inconclusive [activator, single point]	
CCCCCCOC(=O)NCC(O)c1ccccc1 (stereo unspecified)	inconclusive [activator, partial curve, poor fit]	
N#Cc1nc(-c2ccc(Cl)cc2)oc1NCc1ccco1	inconclusive [activator, partial curve]	
Nc1nc2ccccc2n1C(=O)c1ccco1	active: 2.51 µM	
CC1(C)CC(=O)c2c(O)cc(OCC(=O)N3CCN(c4ccc(F)cc4)CC3)cc2O1		inactive: 4.13%
CC1(C)OC(=O)C(=CNc2cccc(C(=O)O)c2)C(=O)O1	inconclusive [activator, partial curve]	
COc1ccc(-n2nc(C(=O)NCC(=O)NC(C)C)c3ccccc3c2=O)c(OC)c1		inactive: 0.897%
COc1ccc(-c2cnn3c4c(c(C)nc23)CCN4C(C)C)cc1OC	inconclusive [activator, single point]	
COc1ccc(NC(=O)c2cc(F)c(F)cc2Cl)cc1Cl	inconclusive [activator, partial curve]	
O=C(Nc1cccnc1)c1c(O)c2cccc3c2n(c1=O)CC3	inconclusive [activator, single point]	
NC(=NCc1ccco1)NC(=O)c1ccc(Cl)cc1	inconclusive [activator, partial curve]	
O=C(CNc1ccccc1OC(F)F)N1CCc2ccccc21	active: 3.16 µM	
Nc1ccc(-c2nc3ccc(N)cc3o2)cc1	inconclusive [activator, full curve, poor fit]	
O=C1C=C(NC(=O)Nc2ccc(Cl)c(Cl)c2)CCC1	inconclusive [activator, single point]	
Cc1ccc(C2=CC(c3cccs3)n3nnnc3N2)cc1 (stereo unspecified)	inconclusive [activator, partial curve]	
